From patent US5455278A (priority 1994, dated 1995)

Assays:
[1] = tested on: Listeria monocytogenes cells; assay: Transmission electron microscopy of Listeria monocytogenes cells treated with falcarindiol
Description: The exact mechanism by which falcarindiol inhibits pathogens is not known.

L. monocytogenes = assay: Effect of oxygen on the inhibitory activity of falcarindiol; settings: anaerobic, pH 7.5, 20° C.; versus control
Experimental: This molecule is not only involved in the survival of food-borne pathogens but can also be transformed to toxic metabolites. To evaluate the influence of oxygen on inhibition by falcarindiol in the carrot extract, L. monocytogenes was grown at pH 7.5 and 20° C. in the presence of the compound under anaerobic and aerobic conditions. […] It should be noted that the aerobic control grew at rate faster than the anaerobic control, thus making the difference in the activity of falcarindiol even more pronounced.

**Q.** For C=CC(O)C#CC#CC(O)C=CCCCCCCC (centres unmarked) [falcarindiol], which “effect on L. monocytogenes cells by transmission electron microscopy” value [1] is on record?
**A.** Its value is “affected the cell envelope, causing leakage of intracellular materials”.

**Q.** What about the “growth rate of L. monocytogenes after the lag phase” value (L. monocytogenes) of the same molecule?
**A.** The value was “grew at a similar rate as the control”.
